These are yes or no findings as the source states them, for the method shown. Where a sequence is shown, tags or fusion partners need not be part of it.
Legend:
Assay in all cases: two-hybrid; yeast strain AH109 co-transformed with AD (pGAD.GH) and BD (pGBT9.BS) fusions; growth on SC-LWH and on SC-LWH with 0.5 and 3.0 mM 3-AT
[1] = biological target: T1, CIPK26, two-hybrid fusion (Arabidopsis) (UniProt Q84VQ3)
T1 sequence: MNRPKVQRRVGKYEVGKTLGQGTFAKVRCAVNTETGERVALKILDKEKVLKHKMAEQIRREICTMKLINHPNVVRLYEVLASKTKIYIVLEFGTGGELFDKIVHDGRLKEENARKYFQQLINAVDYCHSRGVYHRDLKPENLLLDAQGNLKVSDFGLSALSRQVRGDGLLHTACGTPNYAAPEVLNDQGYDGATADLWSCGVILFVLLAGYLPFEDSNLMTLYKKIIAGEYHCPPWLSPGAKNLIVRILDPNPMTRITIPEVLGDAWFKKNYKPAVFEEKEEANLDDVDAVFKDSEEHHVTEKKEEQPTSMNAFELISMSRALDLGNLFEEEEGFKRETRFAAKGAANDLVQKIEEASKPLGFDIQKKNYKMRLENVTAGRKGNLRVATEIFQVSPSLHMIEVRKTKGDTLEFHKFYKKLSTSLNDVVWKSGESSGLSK

[2] = biological target: T2, CIPK13, two-hybrid fusion (Arabidopsis) (UniProt O22971)
T2 sequence: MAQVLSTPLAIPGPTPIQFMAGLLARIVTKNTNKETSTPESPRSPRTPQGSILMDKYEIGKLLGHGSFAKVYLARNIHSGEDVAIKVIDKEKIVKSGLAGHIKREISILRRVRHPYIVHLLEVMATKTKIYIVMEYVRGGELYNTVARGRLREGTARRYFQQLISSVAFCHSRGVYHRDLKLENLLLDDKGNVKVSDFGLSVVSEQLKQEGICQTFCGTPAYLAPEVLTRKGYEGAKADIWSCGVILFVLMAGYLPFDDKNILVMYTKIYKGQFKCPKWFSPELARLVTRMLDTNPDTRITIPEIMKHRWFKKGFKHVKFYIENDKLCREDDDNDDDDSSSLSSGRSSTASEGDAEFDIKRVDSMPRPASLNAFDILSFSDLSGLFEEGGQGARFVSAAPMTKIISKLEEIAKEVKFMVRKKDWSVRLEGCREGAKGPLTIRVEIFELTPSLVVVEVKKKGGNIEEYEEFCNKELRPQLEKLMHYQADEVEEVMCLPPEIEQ

[3] = biological target: T3, CIPK17, two-hybrid fusion (Arabidopsis) (UniProt Q94C40)
T3 sequence: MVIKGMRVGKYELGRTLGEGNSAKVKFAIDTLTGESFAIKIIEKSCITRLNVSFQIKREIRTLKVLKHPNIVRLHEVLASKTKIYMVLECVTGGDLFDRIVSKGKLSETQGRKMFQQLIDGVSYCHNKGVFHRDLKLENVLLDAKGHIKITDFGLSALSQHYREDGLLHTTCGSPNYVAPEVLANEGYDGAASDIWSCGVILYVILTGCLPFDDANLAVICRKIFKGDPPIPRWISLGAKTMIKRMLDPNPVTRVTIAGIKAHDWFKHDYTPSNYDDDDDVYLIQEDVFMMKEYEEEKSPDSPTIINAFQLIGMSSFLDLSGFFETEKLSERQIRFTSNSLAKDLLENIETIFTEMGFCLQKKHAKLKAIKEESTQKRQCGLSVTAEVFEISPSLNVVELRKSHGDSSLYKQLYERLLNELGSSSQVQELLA

[4] = biological target: T4, CIPK14, two-hybrid fusion (Arabidopsis) (UniProt Q9LZW4)
T4 sequence: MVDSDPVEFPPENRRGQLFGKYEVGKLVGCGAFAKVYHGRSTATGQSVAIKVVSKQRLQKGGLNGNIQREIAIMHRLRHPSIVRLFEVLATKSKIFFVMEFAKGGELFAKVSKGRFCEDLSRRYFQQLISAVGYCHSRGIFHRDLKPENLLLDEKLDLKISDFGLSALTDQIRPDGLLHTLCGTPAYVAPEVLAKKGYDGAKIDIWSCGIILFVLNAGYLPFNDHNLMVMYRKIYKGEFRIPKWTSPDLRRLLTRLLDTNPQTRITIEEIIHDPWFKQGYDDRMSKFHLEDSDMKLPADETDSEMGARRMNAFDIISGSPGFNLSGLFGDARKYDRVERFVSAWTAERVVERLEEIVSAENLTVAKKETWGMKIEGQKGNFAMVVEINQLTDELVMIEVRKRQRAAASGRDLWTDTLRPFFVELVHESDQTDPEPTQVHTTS

[5] = biological target: T5, CIPK4, two-hybrid fusion (Arabidopsis) (UniProt Q9SUL7)
T5 sequence: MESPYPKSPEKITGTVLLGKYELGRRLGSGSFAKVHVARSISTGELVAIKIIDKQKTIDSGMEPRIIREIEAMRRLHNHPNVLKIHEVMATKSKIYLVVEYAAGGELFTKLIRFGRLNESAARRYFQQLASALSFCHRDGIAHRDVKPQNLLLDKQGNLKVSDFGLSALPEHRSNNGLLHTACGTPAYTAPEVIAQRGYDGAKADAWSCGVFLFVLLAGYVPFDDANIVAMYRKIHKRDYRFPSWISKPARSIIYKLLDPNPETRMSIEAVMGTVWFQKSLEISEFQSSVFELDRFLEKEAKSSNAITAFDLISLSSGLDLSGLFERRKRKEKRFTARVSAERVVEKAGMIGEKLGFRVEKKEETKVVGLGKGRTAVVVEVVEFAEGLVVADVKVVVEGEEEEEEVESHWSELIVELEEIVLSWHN

binding [1]: no binding
binding [2]: no binding
binding [3]: no binding
binding [4]: no binding
binding [5]: no binding
B1: AP2C1 (protein phosphatase 2C), two-hybrid fusion (enzyme, UniProt O80871 1-396)
chain: MSCSVAVCNSPVFSPSSSLFCNKSSILSSPQESLSLTLSHRKPQTSSPSSPSTTVSSPKSPFRLRFQKPPSGFAPGPLSFGSESVSASSPPGGVLKRKRPTRLDIPIGVAGFVAPISSSAAVAATPREECREVEREGDGYSVYCKRGRREAMEDRFSAITNLHGDRKQAIFGVYDGHGGVKAAEFAAKNLDKNIVEEVVGKRDESEIAEAVKHGYLATDASFLKEEDVKGGSCCVTALVNEGNLVVSNAGDCRAVMSVGGVAKALSSDHRPSRDDERKRIETTGGYVDTFHGVWRIQGSLAVSRGIGDAQLKKWVIAEPETKISRIEHDHEFLILASDGLWDKVSNQEAVDIARPLCLGTEKPLLLAACKKLVDLSASRGSSDDISVMLIPLRQFI

From publication PMC6054203
